Source: the supplement of paper PMC3334620
Over roughly 33,000 sequences, “E-score (-0.5 to 0.5)” has its median near -0.012; the highest 2% begin near 0.27. Some of the results follow.

target: T1, Vhr1 (UniProt P40522); assay: PBM E-score (8-mer binding enrichment) (E-score (-0.5 to 0.5)); higher = stronger / more preferred TF binding; most listed sequences are background and not binding sites; details: protein concentration: 200 nM; construct: GST-full length
T1 sequence: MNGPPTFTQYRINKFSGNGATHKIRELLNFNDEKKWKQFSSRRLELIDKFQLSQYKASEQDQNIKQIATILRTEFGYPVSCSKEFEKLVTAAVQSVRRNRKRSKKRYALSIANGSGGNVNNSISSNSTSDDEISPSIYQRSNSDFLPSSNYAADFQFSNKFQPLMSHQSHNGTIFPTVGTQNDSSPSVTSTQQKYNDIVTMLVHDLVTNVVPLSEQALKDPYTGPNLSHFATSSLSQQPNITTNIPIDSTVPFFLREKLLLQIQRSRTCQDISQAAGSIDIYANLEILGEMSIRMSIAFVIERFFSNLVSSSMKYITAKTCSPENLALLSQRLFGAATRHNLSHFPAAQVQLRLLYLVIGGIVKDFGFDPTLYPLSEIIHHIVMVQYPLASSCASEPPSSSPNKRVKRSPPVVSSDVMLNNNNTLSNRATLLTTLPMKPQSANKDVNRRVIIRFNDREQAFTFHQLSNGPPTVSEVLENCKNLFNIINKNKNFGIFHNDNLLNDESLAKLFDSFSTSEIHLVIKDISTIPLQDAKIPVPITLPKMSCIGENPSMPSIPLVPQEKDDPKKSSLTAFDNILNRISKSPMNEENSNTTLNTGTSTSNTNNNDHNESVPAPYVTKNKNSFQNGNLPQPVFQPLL
Summary of the method: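 Yeast transcription factors carrying a GST tag, as full-length proteins or DNA-binding domains, were produced by PURExpress in vitro transcription/translation. About 100-200 nM protein was applied to universal all-10-mer Agilent arrays, double-stranded by primer extension on fresh or once-stripped slides. Bound protein was detected with fluorescent anti-GST, and scans were normalised with masliner. The Universal PBM Analysis Suite gave each ungapped eight-base word, pooled with its reverse complement, an E-score, a modified Wilcoxon-Mann-Whitney statistic.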

Row | Sequence | PBM E-score
1 | CTTTTAGC | -0.217
2 | AGATCCGA | -0.134
3 | CGAGAGCA | -0.031
4 | ATTTCCGC | 0.0535
5 | AATTTCCC | -0.306
6 | AGACCGGA | 0.129
7 | ATCCCCTA | -0.161
8 | AACCGGTC | -0.109
9 | CTTGAAAA | -0.248
10 | CAGGCTAA | -0.0406
11 | CGAAAACA | -0.0475
12 | GTTACCTA | 0.0717
13 | CGCAAATC | -0.0562
14 | AAGCCTGT | 0.0771
15 | CGACTGTC | 0.102
16 | CGCCGCAC | -0.128
17 | CTGCCACA | -0.0514
18 | ACGCTCAA | -0.0768
19 | CGCGCCCG | 0.0727
20 | AGCACAAG | -0.0682
21 | CGCCATCA | -0.056
22 | GGGGTGTA | -0.111
23 | CGGGTTAA | 0.0195
24 | AGCACCTA | -0.157
25 | CATGACGG | 0.0327

Row | Sequence | PBM E-score
26 | ATAGGTGC | -0.118
27 | TCGTAGAA | -0.215
28 | AGGCATAG | 0.0756
29 | CATTACAG | 0.132
30 | CCCCGGCA | -0.129
31 | CGAGATAA | -0.0472
32 | ATGGAATG | 0.0837
33 | ACTGTATC | 0.0393
34 | AACGCACC | 0.0152
35 | AAAAGGGG | -0.155
36 | GGAAATAA | 0.0737
37 | ATCTTCGC | 0.0868
38 | ATACAGTC | 0.0645
39 | TATCCAGA | 0.0587
40 | CCGGGCCG | 0.235
41 | ACACATGA | 0.213
42 | ATAGCGTG | -0.0299
43 | ATTGATTC | 0.171
44 | AAATGGTG | 0.201
45 | TCAACTGA | 0.145
46 | AGGATAGC | -0.0939
47 | ACCGTCTG | -0.168
48 | AACAGAAC | 0.0623
49 | CACCTTAC | -0.177
50 | AGGCTCTG | -0.0502

Row | Sequence | PBM E-score
51 | TAGAAGGA | -0.332
52 | AAGCAGCC | -0.153
53 | GGAAACGA | 0.0811
54 | AACCGGTT | -0.257
55 | AATGCCAT | 0.0632
56 | TCCGCCGA | 0.0906
57 | AGAATTAA | -0.301
58 | AACCGGGT | 0.173
59 | ACACAGAA | 0.117
60 | CAGGTCAG | 0.0778
61 | GCAGGTCA | -0.0243
62 | CGTTGAGA | -0.0485
63 | ACAACTTG | 0.00228
64 | AGGCTTTC | -0.0516
65 | CCTAATGA | 0.148
66 | ACTATTGG | -0.0598
67 | CTATGTCA | 0.0953
68 | ACCCTTGC | -0.0167
69 | ACACCACA | 0.193
70 | ACGGCAAC | -0.0167
71 | GATTATGC | 0.136
72 | GATATAAA | -0.0981
73 | AAGAACCT | -0.148
74 | CCCGAGCG | -0.0759
75 | ACGCTCTC | -0.156

Row | Sequence | PBM E-score
76 | TCATATGA | 0.381
77 | GTAATTAA | -0.0531
78 | GGTATCTA | -0.00876
79 | CTAACGTA | -0.0559
80 | AGAGTGAC | -0.0526
81 | CACGGACG | -0.017
82 | CGCTTGCC | -0.273
83 | TTAGAGAA | -0.356
84 | AGTAAACC | -0.0886
85 | CGACGTCA | -0.142
86 | CAATTAAA | -0.0545
87 | AATTTCCT | -0.0919
88 | AGACTATA | 0.235
89 | CAGGATCC | 0.127
90 | AATAGTCC | -0.177
91 | GAACCCCC | -0.298
92 | GGGAGGAC | -0.0865
93 | CGGACACA | -0.00066
94 | ACCGAAGT | 0.0829
95 | CCCTCAGA | -0.123
96 | ATGCCTCC | -0.185
97 | AGTGAGCC | 0.221
98 | GATCAAAC | -0.00532
99 | AGTTGACG | 0.047
100 | GAAGCCTA | -0.177

Row | Sequence | PBM E-score
101 | TCAGCCCA | 0.113
102 | CATCACTC | 0.23
103 | GCTTGGCC | -0.0463
104 | CTAGAATC | 0.0123
105 | CTGTCACC | -0.195
106 | CTTTAAAG | -0.224
107 | CATGTCAG | 0.0503
108 | CCCGTACG | -0.0997
109 | ACGACTGG | 0.0415
110 | CCTGCCTC | -0.188
111 | CCTTCAAC | -0.0942
112 | CGGGGCAA | 0.00278
113 | ACACGAAC | 0.176
114 | CGTTTCAC | -0.184
115 | CACTAACA | 0.177
116 | ATCGTCAT | 0.134
117 | ACTCGTTA | 0.00695
118 | AGACAACA | -0.116
119 | TCTCTCAA | 0.115
120 | GGAGCGTA | 0.00751
121 | ACAAATAT | -0.0219
122 | AAACTAAC | -0.0503
123 | ATTAGTCC | 0.122
124 | AAGACACC | 0.145
125 | GATGCGCA | -0.0162

Row | Sequence | PBM E-score
126 | GGCGGTAC | 0.0495
127 | ATGTGTGG | 0.08
128 | TCAGCGCA | -0.0652
129 | ACATATTA | 0.0937
130 | CTGGTAAG | -0.195
131 | AGGTTTGA | -0.122
132 | AAGAGGAA | -0.128
133 | ATGCAATA | 0.0134
134 | GCAACAAC | -0.0563
135 | CGAAATAA | -0.0349
136 | TCACTTCA | -0.186
137 | AAAGCTTA | -0.268
138 | ACAACCAA | 0.166
139 | GAGCATAC | -0.0369
140 | CGAATTCC | -0.061
141 | AGTCCCAC | 0.11
142 | GATTCCCA | 0.198
143 | AAGCGTTC | -0.174
144 | AGCATCCT | -0.182
145 | AGACATCT | 0.0558
146 | GGTGTAGA | -0.0211
147 | AGCACCGG | 0.0651
148 | AATAAAAT | 0.0642
149 | ATCTCCAC | -0.0319
150 | GCCTGGCA | -0.229

Row | Sequence | PBM E-score
151 | GACCGTGC | -0.212
152 | GTGAGCGA | 0.103
153 | AGGCTGAA | -0.0746
154 | CCGTCTCC | 0.12
155 | CAGGAGCG | -0.0637
156 | AAGGGTGA | 0.0864
157 | ACTCGTAT | 0.2
158 | AGAGACCC | -0.101
159 | CACACTAA | 0.2
160 | ATTTAGCG | -0.208
161 | ACCACAAC | 0.258
162 | ACTGCATA | 0.232
163 | CCGCCCAG | 0.0078
164 | GACTGCTA | -0.0725
165 | CTGGGCTC | -0.135
166 | ACTTAACT | -0.126
167 | CTCGGGCC | 0.17
168 | CAATGGAC | 0.0347
169 | CCCAGACC | -0.0183
170 | CGAGTCCA | -0.0942
171 | GAGCGAAA | 0.0518
172 | ATGTATCA | 0.267
